Reference: patent US20110212108A1, “NEUREGULIN/ERBB SIGNALING AND INTEGRIN” (THE REGENTS OF THE UNIVERSITY OF CALIFORNIA, priority 2008, published 2011)
Changes are numbered by the printed parent chain. These are yes or no findings as the source states them, for the method shown. Some binding calls cover weakened binding; strength is not graded here. Tags and fused reporters may be left off the sequences shown.

Protein sequences, listed by entry. Tags and fused reporters are not part of them. Lines headed by an entry give the natural chain unless they say otherwise; changes in a name come on top.
UniProt P23229: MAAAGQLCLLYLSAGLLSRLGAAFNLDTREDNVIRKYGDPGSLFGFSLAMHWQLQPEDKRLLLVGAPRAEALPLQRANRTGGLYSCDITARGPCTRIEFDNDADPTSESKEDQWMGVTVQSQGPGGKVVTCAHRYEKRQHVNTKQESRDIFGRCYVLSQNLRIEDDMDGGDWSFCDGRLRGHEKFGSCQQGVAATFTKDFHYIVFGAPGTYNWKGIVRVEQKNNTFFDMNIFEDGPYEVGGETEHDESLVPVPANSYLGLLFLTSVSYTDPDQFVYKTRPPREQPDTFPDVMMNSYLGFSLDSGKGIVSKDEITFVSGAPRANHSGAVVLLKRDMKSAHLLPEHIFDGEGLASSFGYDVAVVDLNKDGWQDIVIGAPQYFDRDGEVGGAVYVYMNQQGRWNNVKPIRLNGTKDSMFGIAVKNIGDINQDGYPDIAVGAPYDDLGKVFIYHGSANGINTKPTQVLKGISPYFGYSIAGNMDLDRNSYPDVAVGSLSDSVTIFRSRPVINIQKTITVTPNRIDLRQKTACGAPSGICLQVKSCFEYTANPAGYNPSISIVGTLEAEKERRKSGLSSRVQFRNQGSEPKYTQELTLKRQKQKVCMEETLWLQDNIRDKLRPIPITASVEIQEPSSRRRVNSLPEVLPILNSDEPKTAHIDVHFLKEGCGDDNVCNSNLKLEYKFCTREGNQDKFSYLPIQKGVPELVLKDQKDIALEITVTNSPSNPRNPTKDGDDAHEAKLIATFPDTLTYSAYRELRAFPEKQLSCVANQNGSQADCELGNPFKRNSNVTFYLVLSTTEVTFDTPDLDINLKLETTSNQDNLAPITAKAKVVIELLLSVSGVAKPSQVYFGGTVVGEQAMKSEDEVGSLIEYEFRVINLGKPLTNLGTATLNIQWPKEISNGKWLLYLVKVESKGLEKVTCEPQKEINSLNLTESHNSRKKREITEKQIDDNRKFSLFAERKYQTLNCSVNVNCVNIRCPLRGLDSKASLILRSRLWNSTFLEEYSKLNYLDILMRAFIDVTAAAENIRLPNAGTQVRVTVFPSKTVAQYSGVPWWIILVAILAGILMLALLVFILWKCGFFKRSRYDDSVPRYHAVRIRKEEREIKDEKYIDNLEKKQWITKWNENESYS
UniProt P16144: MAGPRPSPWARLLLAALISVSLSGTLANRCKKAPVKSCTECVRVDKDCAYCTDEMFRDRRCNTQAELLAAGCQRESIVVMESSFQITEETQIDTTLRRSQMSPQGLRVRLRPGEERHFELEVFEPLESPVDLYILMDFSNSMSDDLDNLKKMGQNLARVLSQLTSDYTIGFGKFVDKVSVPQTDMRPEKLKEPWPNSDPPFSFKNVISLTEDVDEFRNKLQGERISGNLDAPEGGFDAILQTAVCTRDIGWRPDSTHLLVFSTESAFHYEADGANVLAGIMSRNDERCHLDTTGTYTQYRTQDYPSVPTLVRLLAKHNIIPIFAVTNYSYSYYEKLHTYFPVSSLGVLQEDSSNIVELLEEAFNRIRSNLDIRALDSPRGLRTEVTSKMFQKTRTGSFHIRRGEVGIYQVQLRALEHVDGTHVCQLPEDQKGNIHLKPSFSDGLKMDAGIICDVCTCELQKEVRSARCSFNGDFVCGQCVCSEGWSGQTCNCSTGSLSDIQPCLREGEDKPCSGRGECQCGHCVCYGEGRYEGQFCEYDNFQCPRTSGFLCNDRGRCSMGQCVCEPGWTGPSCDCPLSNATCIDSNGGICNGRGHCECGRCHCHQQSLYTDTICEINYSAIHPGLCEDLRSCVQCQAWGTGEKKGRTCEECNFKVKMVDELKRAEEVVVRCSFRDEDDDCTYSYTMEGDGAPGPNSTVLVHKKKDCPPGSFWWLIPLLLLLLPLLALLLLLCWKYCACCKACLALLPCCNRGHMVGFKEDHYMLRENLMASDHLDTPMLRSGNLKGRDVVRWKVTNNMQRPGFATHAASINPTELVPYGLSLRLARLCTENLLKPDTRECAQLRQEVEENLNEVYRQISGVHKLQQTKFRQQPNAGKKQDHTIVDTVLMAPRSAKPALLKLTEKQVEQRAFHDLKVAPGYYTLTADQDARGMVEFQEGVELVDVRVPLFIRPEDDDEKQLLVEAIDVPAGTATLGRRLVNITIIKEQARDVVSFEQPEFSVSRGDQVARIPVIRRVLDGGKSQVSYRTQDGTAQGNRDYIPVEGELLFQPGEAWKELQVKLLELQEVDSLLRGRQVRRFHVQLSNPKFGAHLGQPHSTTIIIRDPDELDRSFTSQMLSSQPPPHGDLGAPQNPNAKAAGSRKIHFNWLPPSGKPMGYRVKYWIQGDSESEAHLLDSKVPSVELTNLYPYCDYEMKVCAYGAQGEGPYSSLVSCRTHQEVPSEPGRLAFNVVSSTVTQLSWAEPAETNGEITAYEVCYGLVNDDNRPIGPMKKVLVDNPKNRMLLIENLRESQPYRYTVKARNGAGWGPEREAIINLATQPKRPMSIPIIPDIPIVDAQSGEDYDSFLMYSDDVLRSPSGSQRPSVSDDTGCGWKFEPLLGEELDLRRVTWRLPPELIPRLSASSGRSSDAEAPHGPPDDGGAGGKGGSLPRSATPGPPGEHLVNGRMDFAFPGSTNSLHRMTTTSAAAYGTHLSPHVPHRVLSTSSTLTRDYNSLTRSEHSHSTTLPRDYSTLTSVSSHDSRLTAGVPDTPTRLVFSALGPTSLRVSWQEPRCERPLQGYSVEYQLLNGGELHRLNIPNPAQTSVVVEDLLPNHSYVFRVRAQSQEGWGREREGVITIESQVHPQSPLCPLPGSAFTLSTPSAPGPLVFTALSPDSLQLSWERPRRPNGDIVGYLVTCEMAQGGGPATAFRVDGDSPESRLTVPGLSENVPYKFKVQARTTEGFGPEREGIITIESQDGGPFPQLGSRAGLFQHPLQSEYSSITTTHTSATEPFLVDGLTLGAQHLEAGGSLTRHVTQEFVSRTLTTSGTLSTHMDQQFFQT
UniProt P06756: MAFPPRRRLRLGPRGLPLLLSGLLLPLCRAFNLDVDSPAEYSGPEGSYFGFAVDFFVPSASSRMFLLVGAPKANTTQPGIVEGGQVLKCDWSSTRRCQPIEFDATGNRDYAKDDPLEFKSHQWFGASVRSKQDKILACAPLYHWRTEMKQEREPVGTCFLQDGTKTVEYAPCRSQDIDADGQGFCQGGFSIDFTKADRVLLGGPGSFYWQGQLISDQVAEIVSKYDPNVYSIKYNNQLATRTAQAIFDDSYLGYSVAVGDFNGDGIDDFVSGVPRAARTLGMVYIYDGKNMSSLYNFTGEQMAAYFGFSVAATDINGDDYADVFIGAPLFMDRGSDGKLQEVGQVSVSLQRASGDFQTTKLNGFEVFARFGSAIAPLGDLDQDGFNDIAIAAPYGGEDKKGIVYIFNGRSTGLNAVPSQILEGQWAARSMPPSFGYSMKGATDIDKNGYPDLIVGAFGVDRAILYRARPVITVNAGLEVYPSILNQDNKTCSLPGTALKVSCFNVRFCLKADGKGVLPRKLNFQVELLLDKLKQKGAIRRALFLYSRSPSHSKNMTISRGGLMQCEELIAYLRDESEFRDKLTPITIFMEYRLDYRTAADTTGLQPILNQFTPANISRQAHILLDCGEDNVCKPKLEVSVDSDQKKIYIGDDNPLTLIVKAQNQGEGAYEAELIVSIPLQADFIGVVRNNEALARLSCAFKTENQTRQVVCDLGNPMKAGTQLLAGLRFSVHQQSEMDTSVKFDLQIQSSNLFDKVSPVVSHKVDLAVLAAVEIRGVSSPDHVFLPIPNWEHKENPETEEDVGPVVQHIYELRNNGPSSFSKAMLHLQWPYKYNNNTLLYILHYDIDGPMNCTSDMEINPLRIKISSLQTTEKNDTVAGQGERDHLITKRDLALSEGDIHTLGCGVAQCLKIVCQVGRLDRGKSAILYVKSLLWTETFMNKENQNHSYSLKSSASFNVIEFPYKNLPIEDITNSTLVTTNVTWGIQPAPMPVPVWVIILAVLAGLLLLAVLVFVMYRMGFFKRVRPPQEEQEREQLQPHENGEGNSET

Columns and labels:
[1] = target: human integrin α6β4 on CHO cells (α6β4-CHO) (human) (UniProt P23229+P16144); assay: cell adhesion to immobilised NRG1
[2] = target: soluble recombinant integrin αvβ3 (UniProt P06756); assay: ELISA-type assay, NRG1 immobilised, soluble αvβ3 5 µg/ml with 1 mM Mn2+
[3] = target: soluble recombinant integrin αvβ3 (UniProt P06756); assay: ELISA-type assay, wt GST-NRG1 (175-222) immobilised, soluble αvβ3 5 µg/ml with 1 mM Mn2+
[4] = target: soluble recombinant integrin αvβ3 (UniProt P06756); assay: ELISA-type assay, GST-NRG1α (175-241) immobilised, soluble αvβ3
[5] = target: soluble recombinant integrin αvβ3 (UniProt P06756); assay: ELISA-type assay, 2KE immobilised, soluble αvβ3 with 1 mM Mn2+
[6] = target: soluble recombinant integrin αvβ3 (UniProt P06756); assay: ELISA-type assay, 3KE immobilised, soluble αvβ3 with 1 mM Mn2+

B1: GST-NRG1 (175-222), wild type EGF-like domain of human neuregulin 1 as GST fusion protein (ligand, not shown: a dimerising Fc or GST)
chain: GTSHLVKCAEKEKTFCVNGGECFMVKDLSNPSRYLCKCQPGFTGARCT
binding [1]: binds | binding [2]: binds | binding [3]: binds

B2: GST-NRG1α (175-241), wild type (EGF-like motif and α domain of human neuregulin 1α as GST fusion protein) (ligand, not shown: a dimerising Fc or GST)
chain: GTSHLVKCAEKEKTFCVNGGECFMVKDLSNPSRYLCKCQPGFTGARCTENVPMKVQNQEKAEELYQK
binding [4]: binds

B3: 2KE (175-222) mutant of NRG1 (Lys185/Lys187 to Glu), GST fusion protein (ligand, not shown: a dimerising Fc or GST; large carriers; small tags and cut ends)
chain: B1 chain with K11E, K13E
binding [5]: no binding (tested: soluble αvβ3 5 µg/ml)

B4: 3KE (175-222) mutant of NRG1 (Lys181/Lys185/Lys187 to Glu), GST fusion protein (ligand, not shown: a dimerising Fc or GST; large carriers; small tags and cut ends)
chain: B1 chain with K7E, K11E, K13E
binding [6]: no binding (tested: soluble αvβ3 5 µg/ml)
